# Experimental data from publication PMC12136788.
# Some of the results follow.
# B1: chr1:163112212:163112213:-_ENSG00000143248_ENST00000313961|hu_hu|hu_hu_hu_mus_False|88_108 (ssRNA)
# RNA: GGGAGUUCUACAGUCCGACGAUCUUUAUUUAUCCAGAAGAGUGAGUCACAUAGUACGCAAAGUAUUGGAUACAAUAAUCAGGAAACAAACACUAUUGGUCCAGAAUUUAAAACUUUAUGAGCGAAGUGCUGGCACAGGACUUACAACAGAGGAUUGAGCAUCA
# B2: chr7:135612270:135612271:-_ENSG00000105887_ENST00000393085|hu_mus|hu_hu_hu_mus_False|58_98 (ssRNA)
# RNA: GGGAGUUCUACAGUCCGACGAUCGUUUUUUUCUGAGUAAGUAUUACGUACUUCAGUGGAAAACAAAACUUAACCUUUCGCUAAUGCGUGUUGUACCAAAAGCAGACAUUUUAGCUUCAUUUAUUCAAAAAUAUUAACAUUAAGCAACAGAGGAUUGAGCAUCA
# B3: chr1:163112212:163112213:-_ENSG00000143248_ENST00000313961|hu_hu|hu_hu_hu_mus_False|68_78 (ssRNA)
# RNA: GGGAGUUCUACAGUCCGACGAUCUUUUAUUAUCAGUAAGAGUGAGUUACAUACUAGAUAAAGUAUUGAAUACAAAAAUCAGGAAACAAACACUAUUGGUCCAGAAUUUAAAACUUUAUGAGCGAAGUGCUGGCACAGGACUUACAACAGAGGAUUGAGCAUCA
# B4: chr16:9197081:9197082:+_ENSG00000182831_ENST00000327827|perfect_dup|FALSE|FALSE (ssRNA)
# RNA: GGGAGUUCUACAGUCCGACGAUCAAGACCAUGCAGAGCUAUGGCUUCCCGGAAGGGUUGCAAAUCAGUCUCUACAGAUGAGCUAGUUUCCGUUGAAGUAGCUCGGUUAGGGGACACUACAGUCAGUCUUGGGGGAGCUCUAGACAACAGAGGAUUGAGCAUCA
# B5: chr6:168291551:168291552:+_ENSG00000130396_ENST00000400822|hu_mus|FALSE|FALSE (ssRNA)
# RNA: GGGAGUUCUACAGUCCGACGAUCAUGUUUCUUCAUUUUCUUUGGGAUGUAGUCCGGUGGUCUCCUCUUCAACUGAAAGACUAAAAUCCCUUUGUCACUUGGCCAUUCCCUGAAGAUUUGUAAAGGACAUUCAUCAUCGUCAAGCAACAGAGGAUUGAGCAUCA
# B6: chr16:32614670:32614671:+_ENSMUSG00000022797_ENSMUST00000023486|mus_hu|FALSE|FALSE (ssRNA)
# RNA: GGGAGUUCUACAGUCCGACGAUCUACAGCAAGUUUCAUCUCCACAUGACUGUUAUCGCCAUCUACUUGCCGAGCCAGGCUGAACCGGGUAUAUGACAAUGGUUCUCCACCAAACAAGUUAGAGAAUGCUGAUCUAGCUUGAUCCAACAGAGGAUUGAGCAUCA
# B7: chr2:153055717:153055718:-_ENSMUSG00000051413_ENSMUST00000056924|mus_mus|FALSE|FALSE (ssRNA)
# RNA: GGGAGUUCUACAGUCCGACGAUCGAGGUCUCAAAGGCUCCACAAUGGUGGUCCCUGAGCUGCCUCCCUUCCAUGCACGGGAAAAACCCAUACAGAACCGAGAUGAAAUGGGUUAGGAAUUGUUCAGCUGCUUCUGGGCAAGGGCAACAGAGGAUUGAGCAUCA
# B8: 3723961_3724081_3604_CDS_ENSG00000110713_ENST00000324932|human|control|control (ssRNA)
# RNA: GGGAGUUCUACAGUCCGACGAUCGGGCAUUGUGAACACAGAAGUCAGGGGUGGAGGGACAGACCAAGAGGAUGUGGAUGGGAUAUUCAUUAAAGAUGCUGCUCUGGGAGUACGACAUUCUUGCACAGAGACACUUGGUGAAAGCAACAGAGGAUUGAGCAUCA
# B9: chr3:148802587:148802588:-_ENSG00000071794_ENST00000310053|hu_mus|hu_hu_hu_mus_False|1_1 (ssRNA)
# RNA: GGGAGUUCUACAGUCCGACGAUCUCCAACAACUUGUCCUCUCAUAGUUCCAAAUAAAACCAAAUCUUGCUCUUCAUCACUCGUUAGGAAGUCAUCUGGAGGAAUAAUGUCUUGGAAUUCAAAAUGUGGCAAGAAAGUUGGAUACAACAGAGGAUUGAGCAUCA
# B10: chr9:21312366:21312367:-_ENSMUSG00000032180_ENSMUST00000034698|mus_hu|FALSE|FALSE (ssRNA)
# RNA: GGGAGUUCUACAGUCCGACGAUCCUUGUUAGGCCCUGCCCCGCACCAGGCAACGCUAACACAGGAUGGGAGGCUUAGGCUAAGGCACAUUUACAGUAGAGGGGCCAGGAAAUCCGAGGCUCACGUUCCAACGCUGCAGUGCCCCAACAGAGGAUUGAGCAUCA
# B11: chr20:17587764:17587765:+_ENSG00000125868_ENST00000474024|hu_hu|FALSE|FALSE (ssRNA)
# RNA: GGGAGUUCUACAGUCCGACGAUCGUGGCACUGAAUAAUCUACACAGGGCAUCCUUCAAAGGCUACAAUUAAGGAUCCACCUAACUUUUCAGCAAUACAAGCCCGAUUGAGAUCUUCUGGUCCAUUUGCUUGACAUUCAUGUUUCAACAGAGGAUUGAGCAUCA
# B12: 424969_440308_2181_CDS_ENSG00000141252_ENST00000437048|human|control|control (ssRNA)
# RNA: GGGAGUUCUACAGUCCGACGAUCCAGCAGCAGCUGUUCUGCUCCCACCAUGCUAAUUGGCUUGCACUUGAAGAGGUGGGUGAUGAAUUUGGGAAUGAAGGAGUUUGCAAAUUUAACGCAGAACUGAGUGAAGUACUUGCGUGUCAACAGAGGAUUGAGCAUCA
# B13: chr3:7442581:7442582:+_ENSMUSG00000027499_ENSMUST00000028999|mus_hu|FALSE|FALSE (ssRNA)
# RNA: GGGAGUUCUACAGUCCGACGAUCUAUUGUACAAUACAAAACAGUGUAAAUAACACAGCAGUAACACACAGAUACGUAAUGCUAAAAACAGUGCUUUCUGGAUCUUUCUUUUACUGGGUGAACACUUGAGCCAGAGAUAUUUAACAACAGAGGAUUGAGCAUCA
# B14: 37564108_37564228_4529_CDS_ENSG00000125686_ENST00000300651|human|control|control (ssRNA)
# RNA: GGGAGUUCUACAGUCCGACGAUCUGCUGGUGACUUACUAUGGCUGGGAGAGCCACGCUCAUGCUUUGGAGUGGAACCACUGAUGAGUGGAGAGCCAUAGUUUUUAGAAGAAGCCAUUUGAGGCCUAAGCCCUUCUCCACUACUCAACAGAGGAUUGAGCAUCA
# B15: chr6:36887377:36887378:+_ENSG00000198663_ENST00000480824|hu_mus|FALSE|FALSE (ssRNA)
# RNA: GGGAGUUCUACAGUCCGACGAUCUGUUCGGCACUGGAAGGGAGGGAUGAGCUGCAACAUGGCUUCCCCGCUGCCGAGGGUGAACAGGUCAUGCACCUUAUGCAUCUUGCUACCCACCACAGGUUCCGGCUGGAUCAGGAAACACAACAGAGGAUUGAGCAUCA
# B16: chr2:33267772:33267773:-_ENSMUSG00000068966_ENSMUST00000091037|mus_hu|FALSE|FALSE (ssRNA)
# RNA: GGGAGUUCUACAGUCCGACGAUCCAUUCUUCCAGUGUAACAAAAAGAAAGCAACUGCUCAAACACAUUGGGAUUUUUAAUCACUGAUAUUGACAAGCCACUCAUGGUACUUAACGCUGAAUGGUCCCGGAAAUAUGGGGAGCUCAACAGAGGAUUGAGCAUCA
# B17: chr11:30046843:30046844:-_ENSMUSG00000020315_ENSMUST00000011877|mus_hu|FALSE|FALSE (ssRNA)
# RNA: GGGAGUUCUACAGUCCGACGAUCGUAGUGGUAAUAAGUCACCACAUAAGUGAUUAUGGACUUCUCAUCAGGAUGGUCCACGCUGAUGUCUUCGGGGUCCAACAGUUUAGUGAGGCCGAGGUGCUGUUCUGCCAGAUUAAAUGCCAACAGAGGAUUGAGCAUCA
# B18: chr4:137866854:137866855:+_ENSMUSG00000028757_ENSMUST00000030538|mus_mus|FALSE|FALSE (ssRNA)
# RNA: GGGAGUUCUACAGUCCGACGAUCGUCAUCACCAUCAAAGGGGACCCACUUGCCAUUGGAGAGCUGUUCUAUGAUGAUGCUAUACUCCACCAAGUCGGUGACAGUGUAGGCAUUGGGUGGAGCCAUCUCGCCCACCCGGUGAUGCAACAGAGGAUUGAGCAUCA
# B19: chr1:16667403:16667404:+_ENSMUSG00000025940_ENSMUST00000065373|mus_mus|FALSE|FALSE (ssRNA)
# RNA: GGGAGUUCUACAGUCCGACGAUCGUCAUAACCCAUUAGAUGGUUAUAGUCUUCAGGGUUUAAAAAGAGUGCUGGAUUAACUAAUAGCGAUUUUGUUUUAGCAUAAAAGCUGGUGAAUAUAUGUGCGCUCUCUGGAAUUGUCACCAACAGAGGAUUGAGCAUCA
# B20: chr5:145543945:145543946:-_ENSG00000133706_ENST00000545646|hu_hu|hu_hu_hu_mus_True|1_68 (ssRNA)
# RNA: GGGAGUUCUACAGUCCGACGAUCCUGAACGGCCAGUGGUGGGAAAUAAUCAAGCCAGUGCUCUGCUUCAGAAAAUUUCACUAUGUCGUCAUCAGAGAGCCCAAGGGAUUUCAUAAUGUCCCACUGGUACUUAGAAGAUCCAGCCAACAGAGGAUUGAGCAUCA
# B21: chr14:35078925:35078926:-_ENSG00000129515_ENST00000362031|hu_hu|motif|central (ssRNA)
# RNA: GGGAGUUCUACAGUCCGACGAUCAAAAUUUGGCAAUGAACUCUUUGUGUGAACAGUGAAUUUUACUUUAUCCCGCUCACGGAGAGCAUCAGAAAUGUCCACCUGCAGAGCAGCAUCACUUUGAAGAUCUACAUUUAUUGCUUUCAACAGAGGAUUGAGCAUCA
# B22: chr3:49066234:49066235:-_ENSG00000178035_ENST00000326739|hu_mus|FALSE|FALSE (ssRNA)
# RNA: GGGAGUUCUACAGUCCGACGAUCAGACGUCAAGUCCACCUGAUCUGCAGUGAAGUCGAUAUACCCAGGAAGAAUGAGAAAAUCAUUGUAGGUGAGGCCGUCCCCGCAGUUGAAGAGCUGCUGCGCUGUGAGCCCGUCGUCCGGCAACAGAGGAUUGAGCAUCA
# Biological target: T1, UNK ZnF1-3 (human, UniProt Q9C0B0 31-174)
# T1 sequence: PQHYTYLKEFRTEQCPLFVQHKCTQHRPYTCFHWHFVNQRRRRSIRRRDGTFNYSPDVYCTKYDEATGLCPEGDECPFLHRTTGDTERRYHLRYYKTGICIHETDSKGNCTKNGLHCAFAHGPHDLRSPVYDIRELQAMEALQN
# Test: nsRBNS (natural sequence RNA bind-n-seq); RBNS binding buffer (assumed for nsRBNS): 25 mM Tris pH 7.5, 150 mM KCl, 3 mM MgCl2, 0.01% Triton X-100, 500 ug/ml BSA, 20 U/ml SUPERase-In, 4 C; UNK is unkempt and MSI1 is Musashi-1; names of the RNAs are library labels; protein concentration not given here; high values mean tight binding
row,Binder,binding signal
1,B1,1.71 enrichment R
2,B2,0.623 enrichment R
3,B3,1.27 enrichment R
4,B4,1.33 enrichment R
5,B5,0.773 enrichment R
6,B6,0.744 enrichment R
7,B7,0.944 enrichment R
8,B8,2.01 enrichment R
9,B9,0.979 enrichment R
10,B10,0.709 enrichment R
11,B11,1.1 enrichment R
12,B12,1.18 enrichment R
13,B13,0.774 enrichment R
14,B14,0.879 enrichment R
15,B15,1.26 enrichment R
16,B16,1.49 enrichment R
17,B17,0.782 enrichment R
18,B18,0.974 enrichment R
19,B19,0.896 enrichment R
20,B20,1.64 enrichment R
21,B21,1.23 enrichment R
22,B22,1.75 enrichment R
